We go through 172 sequences from publication PMC10668032.

Some of the results follow. At the low end of the ranking the order means little.

The experiment addresses SIX1 homeodomain (reference allele) (UniProt Q15475). As to the kind of experiment: universal protein binding microarray. To be noted: Universal all-10-mer PBM (8x60K, AMADID 030236), 300 nM GST-tagged protein, Alexa Fluor 488 anti-GST; buffer, salt, pH and temperature not stated; high values mean tight binding; most listed sequences are background and not binding sites; double strand, one strand shown.
In the case of GCACCGTA, the binding signal was -0.00451 E-score.
Regarding GGCAGGAC, the binding signal is -0.0555 E-score.
The result for CGGGAGCC reads -0.209 E-score; that for ACATGGAT, 0.229 E-score.
On to AGACGAAG, for which the binding signal was -0.149 E-score.
In the case of GACATTCC, the binding signal was -0.123 E-score.
Next, GGACCAGA: -0.217 E-score.
For the sequence TCACCAGA, the binding signal stood at 0.00781 E-score.
ACCCTTAA: the binding signal was found to be 0.00502 E-score.
As to GTCCAACA, the binding signal was -0.0379 E-score.
Take CCAGGCAC: the binding signal came to 0.00686 E-score.
Next, CAGTTCAC: -0.247 E-score; CAATGGGC: -0.208 E-score.
Next, GAGAGCTC: -0.00421 E-score; ATACGCCA: 0.291 E-score.
Take CACGTCCA: the binding signal is -0.123 E-score.
As to TAATCGGA, the binding signal was found to be 0.111 E-score.
Next, CGTAAGCA: -0.17 E-score.
The result for CCGAGTTC reads -0.136 E-score; that for CGAGAGCG, -0.172 E-score.
Next, GGTCTTAA: -0.0509 E-score; CGTAACAC: 0.205 E-score; ACGGTCGC: -0.178 E-score.
Take GATGACAC: the binding signal stood at 0.344 E-score.
As for CTTAACAC, the binding signal came out at 0.151 E-score.
For AGACCAAA, the binding signal was -0.181 E-score.
Next, CTTTTTAC: -0.0867 E-score; ACGATTAC: -0.106 E-score; CTGCAGTC: -0.296 E-score.
The result for ATTCGTAG reads 0.0214 E-score.
As to CAATATGA, the binding signal is 0.187 E-score.
With TCTCCAGA, the binding signal was 0.165 E-score.
Turning to ATATGCGG, the binding signal worked out at 0.274 E-score.
On to CATATATA, for which the binding signal was 0.279 E-score.
On to CCCATTAC, for which the binding signal was -0.0573 E-score.
The result for ATTTTCTC reads -0.149 E-score.
Next, ACCCACCC: 0.09 E-score; CCCCCAGA: -0.00513 E-score; CTCAGAAC: -0.18 E-score.
Next, CGCTAGTA: 0.134 E-score; ACTTTTAA: -0.246 E-score; GGAGGGGA: 0.163 E-score.
Consider ATTTCCAC, for which the binding signal was -0.18 E-score.
Next, ACGGTTCC: -0.191 E-score; GGGCCCTA: -0.107 E-score.
Next, ACCCTACA: 0.109 E-score.
The result for CATCATCA reads -0.0362 E-score.
Regarding AAATCCGT, the binding signal was found to be 0.0925 E-score.
Consider ACGTCCCT, for which the binding signal was 0.0552 E-score.
With ACTTGAGA, the binding signal came to 0.141 E-score.
Take ACCATGCA: the binding signal is 0.0958 E-score.
Next, AGCTCCGG: -0.00649 E-score; AATGAGAA: -0.022 E-score; ATCACAAG: 0.164 E-score.
Next, ATGTTCCG: -0.191 E-score; GCATTATA: 0.148 E-score.
As to GACCCCTA, the binding signal was 0.0617 E-score.
The result for AGAGTAAT reads 0.0611 E-score.
Next, TACTGACA: 0.182 E-score; TCATCGGA: 0.176 E-score.
With AGACCCGG, the binding signal turned out to be 0.214 E-score.
With CAGCCCCA, the binding signal was found to be 0.0535 E-score.
Next, GCTTCGCC: -0.386 E-score.
With ATTTTGAC, the binding signal was -0.117 E-score.
For AGATGTCC, the binding signal came to 0.00742 E-score.
In the case of CGGGTCAA, the binding signal came to 0.191 E-score.
Turning to CTTATAAG, the binding signal is -0.136 E-score.
Next, ATGGCTAG: 0.0586 E-score; CGAGTGAC: -0.091 E-score.
On to ATAGCACA, for which the binding signal was determined as 0.169 E-score.
Turning to CCACTAGC, the binding signal was -0.0874 E-score.
The result for GACTCCTC reads -0.152 E-score.
Next, AGAACCCT: 0.0843 E-score; ATTGCGCG: -0.0563 E-score.
The result for GGGGCCCC reads -0.0405 E-score.
Turning to ATTCAAGA, the binding signal is 0.0306 E-score.
Take TACAAGCA: the binding signal is -0.0262 E-score.
Next, CACTACCG: -0.0708 E-score; CAAATTAA: -0.283 E-score.
On to ACTCCTCC, for which the binding signal was -0.087 E-score.
CGTAGCTA: the binding signal was -0.0303 E-score.
Take GTCCACAA: the binding signal is -0.206 E-score.
Next, CCAGTGGG: -0.0311 E-score; CCTCTCAG: -0.16 E-score; ACACGAGA: 0.134 E-score.
Consider ATGCGCTG, for which the binding signal is -0.0953 E-score.
CCCCGGTC: the binding signal is -0.0129 E-score.
Take ACTAGCCC: the binding signal is -0.118 E-score.
Next, AACCTCAT: -0.116 E-score; TCTCTGAA: -0.25 E-score; ACCGGACT: -0.078 E-score.
For the sequence GTGACGCA, the binding signal was -0.139 E-score.
For CGACGCAC, the binding signal was -0.0474 E-score.
The result for GTAATTCA reads -0.0194 E-score; that for CATACGGC, 0.0756 E-score.
Next, GGACTAAA: -0.0835 E-score; TAAAGAGA: -0.159 E-score; TACTATAA: 0.075 E-score.
Next, TCCCGGCA: -0.117 E-score; AAGTAGAT: 0.239 E-score.
ATGGCCAG: the binding signal is -0.0433 E-score.
For the sequence GAGGGACA, the binding signal came out at 0.0621 E-score.
The result for CAAGGGGC reads -0.148 E-score; that for AATGTCAC, -0.0789 E-score.
The result for GACCGTTA reads 0.00061 E-score; that for CATTGGAG, -0.0229 E-score.
Turning to AATGACCG, the binding signal is -0.206 E-score.
The result for AGGATGGG reads 0.122 E-score.
Turning to CGGGGTTA, the binding signal stood at 0.188 E-score.
The result for TCGCTAAA reads -0.19 E-score; that for GTGACATA, -0.0367 E-score; that for GAGTATGA, 0.0737 E-score.
Next, GTAGAAAA: -0.17 E-score; TACTTAGA: 0.0533 E-score.
For the sequence ACATAGGA, the binding signal is -0.0745 E-score.
For the sequence AACGTATG, the binding signal was -0.149 E-score.
As for ATGAAGTC, the binding signal was -0.184 E-score.
With CTTGGCAA, the binding signal was -0.163 E-score.
As for GAAGAACC, the binding signal is -0.122 E-score.
Regarding CGGATCTA, the binding signal stood at 0.318 E-score.
As to TCAGCCCA, the binding signal was -0.0372 E-score.
Turning to CAACTACG, the binding signal is -0.1 E-score.
The result for ACGAACCC reads -0.0698 E-score.
Next, AACAACTT: -0.254 E-score; CATCATAC: 0.151 E-score; CGCACGAC: 0.0642 E-score.
AACGCGTA: the binding signal was -0.0785 E-score.
The result for AAGTTGAA reads -0.318 E-score.
The result for ACTAAGCA reads -0.311 E-score; that for AAATGCGG, -0.166 E-score.
In the case of AAGGCGCG, the binding signal is -0.201 E-score.
The result for CACACTGG reads -0.0578 E-score.
Take ACAGGTAT: the binding signal is 0.312 E-score.
Take GGAATCAA: the binding signal is -0.104 E-score.
The result for AGACGACT reads 0.0849 E-score.
Next, ATGTTGCG: -0.0672 E-score.
Next, ATTTACAA: -0.0379 E-score; CTCGACTA: -0.118 E-score.
Take AACCCGGC: the binding signal was -0.0303 E-score.
The result for GGGGTCCA reads 0.107 E-score; that for ACATGTGC, -0.224 E-score; that for GGCTGAAC, -0.262 E-score.
The result for TCATGAAA reads -0.0439 E-score.
Next, CGTAGACG: -0.0672 E-score; ACTCTGAC: -0.132 E-score.
Take TACCATAA: the binding signal was found to be 0.0698 E-score.
Consider GCGCCTAA, for which the binding signal was -0.189 E-score.
The result for CATTACTC reads -0.0365 E-score; that for CAACGTAC, -0.261 E-score; that for AAAACCTG, -0.283 E-score.
Next, CATACGAG: 0.048 E-score; AGCGTTGC: -0.292 E-score.
Next, ACTTTGGC: -0.141 E-score.
As to AAAATCGC, the binding signal was -0.298 E-score.
The result for AGCTAGAT reads 0.193 E-score; that for GGTCCTCA, -0.143 E-score.
The result for CGACTCAG reads -0.0717 E-score.
As for ACTGGACT, the binding signal is -0.238 E-score.
Take TACCCTAA: the binding signal was found to be 0.0851 E-score.
The result for CCGCGACC reads -0.0537 E-score.
ATGATACC: the binding signal amounted to 0.489 E-score.
In the case of AGGGCGGG, the binding signal is -0.0824 E-score.
Take GAGTTTAC: the binding signal was -0.257 E-score.
For ATATTATC, the binding signal stood at 0.261 E-score.
Next, GCAGCACC: -0.0737 E-score.
Take CAGTGATG: the binding signal is -0.161 E-score.
The result for CATCCAAG reads 0.00634 E-score; that for ATGAAACC, 0.242 E-score; that for GACATCCA, -0.104 E-score.
The result for ACCACAAT reads 0.04 E-score; that for CGAAAAAC, -0.13 E-score; that for AAGCTAAT, -0.0694 E-score.
